Experimental data as given in the supplement of paper PMC4723716.
± gives the uncertainty stated by the source. Whole data set: some 9,900 compounds, median “viability index relative to DMSO control” near 1, cut for the lowest 2% near 0.85. The list shows a part of the results.

System: Plasmodium falciparum NF54 stage V gametocytes
Experiment: viability index relative to DMSO control (fraction); higher = less gametocyte killing
Settings: 2.5 µM, library set: Broad Institute DOS, incubation time: 72 h
Method: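 Broad DOS informer set and blood-stage-active DOS compounds screened in duplicate at 2.5 µM against P. falciparum NF54 stage V gametocytes with the serum-free one-step SaLSSA (1536-well): 72 h at 37 °C under low oxygen, then saponin lysis and MitoTracker Red CMXRos staining, with high-content imaging. Viability index = viable-object count divided by the plate mean of DMSO wells (0 = killed, about 1 = inactive).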

Structure (SMILES)	viability index
COc1ccc2c3c([C@@H](CO)N(C[C@]33CCN(Cc4nccs4)CC3)C(=O)NC(C)C)n(C)c2c1	1 ± 0.11
C[C@@H]1CCCCO[C@@H](CN(C)S(C)(=O)=O)[C@H](C)CN([C@@H](C)CO)C(=O)c2cc(NC(=O)NC3CCCCC3)ccc2O1	1.12 ± 0.11
CCCC(=O)Nc1ccc2c(c1)C(=O)N(C)C[C@@H](OC)[C@@H](C)CN(C(=O)c1ccccn1)[C@H](C)CO2	0.989 ± 0.16
CN(C)C(=O)C[C@H]1CC[C@@H]2[C@H](COC[C@H](O)CN2C(=O)C2CCOCC2)O1	1.07 ± 0.1
COc1ccc2c3c([nH]c2c1)[C@@H](CO)N(Cc1ccc(Cl)cc1)C[C@]31CCN(Cc2nccs2)CC1	0.814 ± 0.015
O=C(c1ccccc1F)N1C[C@@H]2[C@H](c3ccccc31)[C@@H](CO)N2C(=O)Nc1ccccc1	1.03 ± 0.026
CCCC(=O)N1CC[C@@]2(CC1)CN(Cc1ccc(Cl)cc1)[C@H](CO)c1[nH]c3cc(OC)ccc3c21	0.873 ± 0.16
CCCNC(=O)N1[C@@H](CO)[C@@H](c2ccccc2)C12CN(CCC(F)(F)F)C2	1.133 ± 0.01
CCNC(=O)c1cc2c(c(-c3cccc(-c4ccccc4F)c3)n1)[C@H](CCO)N(C(=O)CC1CC1)C2	1.05 ± 0.051
COCC#Cc1ccc([C@H]2[C@H]3CN(Cc4cccnc4)CCCCN3[C@H]2CO)cc1	1.03 ± 0.07
CO[C@H](CN(C)C(=O)C1CCOCC1)[C@@H](C)CN([C@H](C)CO)S(=O)(=O)c1ccccc1	1.15 ± 0.045
C[C@@H]1CN([C@@H](C)CO)S(=O)(=O)c2ccc(-c3cncnc3)cc2O[C@@H]1CN(C)C(=O)NC1CCCC1	0.973 ± 0.019
COCC(=O)Nc1ccc2c(c1)C(=O)N(C)[C@H]1CC[C@@H](CC(=O)NC3Cc4ccccc4C3)O[C@@H]1CO2	1.16 ± 0.13
O=C(NCC1CC1)[C@@H]1[C@@H](CO)[C@@H]2Cn3c(ccc(-c4ccccc4F)c3=O)[C@H]1N2Cc1cncnc1	1.05 ± 0.02
O=C(C[C@H]1CC[C@@H]2[C@H](COC[C@@H](O)CN2C(=O)c2cnccn2)O1)NCc1ccc(Cl)cc1	1.02 ± 0.075
COCCNC(=O)C[C@@H]1CC[C@H]2[C@@H](COC[C@@H](O)CN2C(=O)c2cc(Cl)cc(Cl)c2)O1	1.05 ± 0.019
COc1ccc(S(=O)(=O)N2C[C@H](O)COC[C@@H]3O[C@H](CC(=O)N[C@H]4CCN(Cc5ccccc5)C4)CC[C@H]32)cc1	0.995 ± 0.11
CO[C@H]1CN(C)C(=O)c2cc(NC(=O)C3CCCCC3)ccc2OC[C@H](C)N(C(=O)c2ccccc2)C[C@@H]1C	1.04 ± 0.04
C/C=C/c1ccc([C@@H]2[C@@H](CO)N(C(=O)C3CCC3)C23CN(C(=O)NC(C)C)C3)cc1	1.059 ± 0.0085
COCC(=O)N1CC[C@@H]2[C@@H](CO)N(C)c3ccc(-c4cccc(F)c4)cc3[C@@H]21	1.12 ± 0.016
O=C(c1ccccc1)N1[C@H](CO)[C@H](c2ccccc2)C12CN(Cc1nccs1)C2	1.08 ± 0.018
CS(=O)(=O)N1CC(=O)N2[C@H](CO)[C@H](c3ccc(C#CCC4CCCC4)cc3)[C@@H]2C1	1.05 ± 0.037
COc1cccc(S(=O)(=O)Nc2ccc3c(c2)C(=O)N(C)[C@@H]2CC[C@H](CC(=O)NCC4CCCCC4)O[C@@H]2CO3)c1	1.01 ± 0.026
CCCC#Cc1cnc2c(c1)C(=O)N([C@@H](C)CO)C[C@H](C)[C@H](CN(C)C(=O)Nc1cc(F)ccc1F)O2	1.02 ± 0.096

Structure (SMILES)	viability index
CCCNC(=O)N1[C@H](CO)[C@@H](c2ccccc2)C12CN(CCC(F)(F)F)C2	1.1 ± 0.029
COc1ccc(S(=O)(=O)N(C)C[C@@H]2Oc3c(NC(=O)c4nc5ccccc5s4)cccc3C(=O)N([C@H](C)CO)C[C@@H]2C)cc1	0.951 ± 0.047
O=C(C[C@H]1CC[C@H]2NC[C@H](O)COC[C@@H]2O1)NCCN1CCCCC1	0.966 ± 0.15
CCCNC(=O)N1CC[C@@]2(CC1)CN(Cc1ccccn1)[C@H](CO)c1c2c2ccc(OC)cc2n1C	1 ± 0.016
C[C@@H]1CN([C@H](C)CO)C(=O)c2cc(NC(=O)C3CCCCC3)ccc2O[C@@H]1CN(C)Cc1ccc2c(c1)OCO2	1.05 ± 0.082
C[C@@H]1CN([C@@H](C)CO)S(=O)(=O)c2ccc(C#Cc3cccc(F)c3)cc2O[C@@H]1CN(C)S(=O)(=O)c1cn(C)cn1	0.9512 ± 0.0018
CCCNC(=O)N[C@@H]1C=C[C@H](CC(=O)N2CCN(C)CC2)O[C@H]1CO	0.944 ± 0.021
COc1ccc(NC(=O)N(C)C[C@@H]2OCc3ccccc3-c3ccccc3C(=O)N([C@@H](C)CO)C[C@H]2C)c(OC)c1	0.927 ± 0.026
CCS(=O)(=O)Nc1ccc2c(c1)C(=O)N(C)[C@H]1CC[C@H](CC(=O)N[C@@H]3CCN(Cc4ccccc4)C3)O[C@@H]1CO2	1.12 ± 0.12
COc1ccc2c3c([C@@H](CO)NC[C@]33CCN(Cc4cc(F)ccc4F)CC3)n(C)c2c1	0.973 ± 0.026
CN1C(=O)c2cc(NC(=O)c3cnccn3)ccc2OC[C@@H]2O[C@H](CC(=O)NCC3CCCCC3)CC[C@H]21	0.999 ± 0.11
CS(=O)(=O)Nc1ccc2c(c1)[C@@H]1C[C@@H](CC(=O)NCCc3ccccc3)O[C@H](CO)[C@@H]1O2	1.01 ± 0.0053
C[C@@H]1CN([C@H](C)CO)S(=O)(=O)c2ccc(C#CC(C)(C)O)cc2O[C@@H]1CN(C)Cc1ccc(F)cc1	0.969 ± 0.051
COc1ccccc1CN1[C@H](CO)[C@@H]2c3ccccc3N(C(=O)C3CCOCC3)C[C@@H]21	1.07 ± 0.033
CO[C@@H]1CN(C)C(=O)c2ccc(NC(=O)c3cccc(F)c3)cc2OC[C@@H](C)NC[C@H]1C	1.09 ± 0.072
COc1ccc(S(=O)(=O)N(C)C[C@H]2OCCCC[C@H](C)Oc3ccc(NC(=O)Cc4ccccc4)cc3C(=O)N([C@H](C)CO)C[C@@H]2C)cc1	0.994 ± 0.022
O=C(CCN1CCCCC1)N[C@H]1CC[C@@H](CC(=O)N2CCC(Cc3ccccc3)CC2)O[C@H]1CO	0.956 ± 0.035
COc1ccc(C[C@@H]2CCn3cc(nn3)COC[C@H](C)NC2=O)cc1	1.102 ± 0.0077
CC(=O)N1C[C@@H]2N[C@H](C1)[C@H]2c1ccc(-c2ccccc2)cc1	1.11 ± 0.016
COc1ccc(CNC(=O)C[C@H]2C=C[C@H](NC(=O)c3cccc(F)c3)[C@@H](CO)O2)cc1	0.94 ± 0.062
C[C@@H]1CN([C@@H](C)CO)C(=O)c2c(c3ccccc3n2C)-c2ccccc2CO[C@H]1CN(C)C(=O)[C@@H]1CCCN1C	0.983 ± 0.013
COc1ccccc1-c1ccc([C@@H]2[C@@H](CO)N3CCCCN(C(=O)c4cccnc4)C[C@H]23)cc1	1.02 ± 0.05
CCCNC[C@@H]1[C@@H](c2ccc(C3=CCCCC3)cc2)[C@@H](CO)N1C(=O)C1CCC1	1.033 ± 0.01
C[C@@H]1COCn2nncc2CC[C@H](Cc2ccc(-c3ccccc3)cc2)C(=O)N1	1.01 ± 0.029

Structure (SMILES)	viability index
CCN1[C@@H]2c3ccc(-c4ccc(F)cc4)c(=O)n3C[C@H]1[C@H](CO)[C@H]2C(=O)Nc1nccs1	0.977 ± 0.069
CC(=O)N1[C@@H](CO)[C@@H](c2ccccc2)[C@@H]1CNC(=O)CN1CCOCC1	1.01 ± 0.049
C[C@H]1CN([C@@H](C)CO)C(=O)c2cc(NS(=O)(=O)c3cccs3)ccc2O[C@H]1CN(C)S(=O)(=O)c1ccc(Cl)cc1	0.94 ± 0.062
COc1ccc(CN(C)C[C@@H]2Oc3ccc(NC(=O)Nc4ccc5c(c4)OCO5)cc3CC(=O)N([C@@H](C)CO)C[C@H]2C)cc1	0.918 ± 0.026
CCC(=O)N1Cc2cc(C(=O)Nc3nccs3)nc(-c3cccc(-c4ccccc4OC)c3)c2[C@H]1CCO	0.9756 ± 0.001
O=C(C[C@H]1CC[C@@H](NC(=O)c2cccnc2)[C@H](CO)O1)NCc1ccc(Cl)c(Cl)c1	0.993 ± 0.055
CN1C(=O)c2cc(NC(=O)c3cccc(F)c3)ccc2OC[C@H]2O[C@H](CC(=O)NCc3ccccc3Cl)CC[C@@H]21	0.944 ± 0.061
N#C[C@H]1[C@@H](c2ccccc2C2=CCCCC2)[C@@H](CO)N1C(=O)Nc1ccccc1F	1.16 ± 0.039
CCCNC(=O)Nc1ccc2c(c1)OC[C@@H](C)N(Cc1cncnc1)C[C@@H](C)[C@H](OC)CN(C)C2=O	1.03 ± 0.044
CNC(=O)C[C@H]1CC[C@@H]2[C@H](COc3ccc(NS(=O)(=O)c4ccc(F)cc4)cc3C(=O)N2C)O1	1.101 ± 0.01
COc1ccc2c3c([nH]c2c1)[C@H](CO)N(C[C@]31CN(Cc2cc(on2)-c2ccccc2)C1)C(=O)Nc1ccc(F)cc1	1.08 ± 0.067
CCC(=O)N1CC[C@@H]2[C@@H](CO)Nc3ccc(C#Cc4ccccc4F)cc3[C@@H]21	1.06 ± 0.034
COCC(=O)Nc1ccc2c(c1)[C@@H]1C[C@@H](CC(=O)N3CCOCC3)O[C@H](CO)[C@@H]1O2	1.1 ± 0.045
Cc1noc(C)c1NC(=O)Nc1ccc2c(c1)C(=O)N(C)[C@H]1CC[C@H](CC(=O)N[C@@H]3CCN(Cc4ccccc4)C3)O[C@@H]1CO2	0.898 ± 0.15
O=C(Cc1ccncc1)N1CC[C@@H]2[C@H]1c1cc(Br)ccc1N[C@@H]2CO	0.983 ± 0.081
CN(C)C(=O)c1cccc(-c2ccc([C@@H]3[C@@H]4CN(C(=O)CN5CCOCC5)C[C@H]3N4)cc2)c1	1.08 ± 0.033
CO[C@@H]1CN(C)C(=O)c2ccc(NC(=O)c3cc(C)on3)cc2OC[C@@H](C)N(S(=O)(=O)c2cccc(F)c2)C[C@H]1C	1 ± 0.019
CO[C@@H]1CC[C@H]2CCN(C)C(=O)[C@@H](C)CN(C)C(=O)c3cc(C#N)ccc3OC[C@@H]1O2	1.03 ± 0.076
O=C(C[C@H]1CC[C@H]2[C@@H](COC[C@@H](O)CN2C(=O)Nc2ccccc2)O1)NCc1ccccc1F	1.05 ± 0.048
COc1ccc(CN(C)C[C@@H]2OCCCC[C@@H](C)Oc3ccc(NC(=O)C4CCCCC4)cc3C(=O)N([C@@H](C)CO)C[C@H]2C)cc1	0.971 ± 0.019
CNC[C@@H]1OCCCC[C@H](C)Oc2ccc(NC(=O)Nc3ccc(OC)cc3)cc2C(=O)N([C@H](C)CO)C[C@@H]1C	1.07 ± 0.029
O=C(C[C@@H]1CC[C@@H]2NC[C@H](O)COC[C@H]2O1)NCc1ccc2c(c1)OCO2	1.02 ± 0.035
